Results: the supplement of paper PMC3334620
Over roughly 33,000 sequences, “E-score (-0.5 to 0.5)” has its median near -0.035; the highest 2% begin near 0.34. Some of the results follow.

Biological target: T1, Mot3 (UniProt P54785)
T1 sequence: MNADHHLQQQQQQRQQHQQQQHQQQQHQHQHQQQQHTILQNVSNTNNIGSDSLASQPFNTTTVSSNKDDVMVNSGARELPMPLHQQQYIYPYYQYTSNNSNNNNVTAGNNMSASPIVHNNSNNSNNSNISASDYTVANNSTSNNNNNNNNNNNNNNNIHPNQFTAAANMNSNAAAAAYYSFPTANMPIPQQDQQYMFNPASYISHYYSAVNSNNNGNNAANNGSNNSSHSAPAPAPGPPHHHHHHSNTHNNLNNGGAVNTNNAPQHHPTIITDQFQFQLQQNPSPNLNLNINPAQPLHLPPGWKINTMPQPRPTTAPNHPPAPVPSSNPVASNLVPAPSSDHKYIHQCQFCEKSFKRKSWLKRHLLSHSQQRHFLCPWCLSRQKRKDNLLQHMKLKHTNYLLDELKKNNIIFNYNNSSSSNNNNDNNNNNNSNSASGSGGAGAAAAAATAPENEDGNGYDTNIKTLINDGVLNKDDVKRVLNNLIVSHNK
Test: PBM E-score (8-mer binding enrichment) (E-score (-0.5 to 0.5)); higher = stronger / more preferred TF binding; most listed sequences are background and not binding sites
Conditions: protein concentration: 200 nM; construct: GST-full length
In short: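 Masliner-normalised scans of fluorescent anti-GST signal were the basis for scoring. That signal came from GST-tagged yeast transcription factors applied at about 100-200 nM to double-stranded universal all-10-mer Agilent arrays on fresh or once-stripped slides. Each ungapped eight-base word, pooled with its reverse complement, received an E-score from the Universal PBM Analysis Suite.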

Sequence	PBM E-score
CCTGTGCA	0.0831
AGTCTAAT	0.0256
GATTGACA	0.205
AGGGTCTG	-0.219
AAGAGAGC	-0.0425
CCGGTAAA	-0.0959
GGCAAGGA	0.27
CAGCACTG	-0.289
CACTGTAG	0.127
ATAGATAA	-0.0938
ACTCGACC	-0.0893
GCCAGCAA	-0.0709
GGCGGACC	-0.372
CCCGTTGA	-0.205
CTAAACAC	0.241
ACGACTAA	-0.0575
AAAGTAAG	0.0328
CATCGGGC	-0.282
TGGATACA	0.12
ACCGCCCT	-0.196
CAGATTGC	-0.0432
GGCGGGAA	-0.121
CTCATCCC	-0.188
ACGACTAT	0.0582
CACCTCAG	-0.0765

Sequence	PBM E-score
CGTGAGGC	-0.0726
CAAGGCCA	0.0593
AGGGATCG	-0.125
CATCGATA	0.0964
GGCGCCAC	-0.253
CAGCTTCC	-0.155
GTGGGAAC	-0.262
CGCCGACG	-0.0725
ACACCCCC	-0.0289
GATTCCGC	-0.18
TCCAAGCA	0.0974
CACGGTCG	-0.215
TCTAGGCA	0.458
CTGTCTAA	0.0585
CGCGAGGA	-0.201
ACTTGTAA	0.28
AAATAAGC	-0.0442
GCTGGTCC	-0.283
AATATGTC	0.147
CGGTACCG	-0.156
ACGGTGGG	-0.145
ATCGTAAC	0.0819
GGCTTTTA	0.0764
ATTTAGTC	0.0594
GCCAACTA	-0.00052

Sequence	PBM E-score
CCCGTGTC	0.082
CAGAGGAA	0.0456
TGTCGTAA	0.211
CCATTCGC	-0.267
CGAAAAGC	-0.23
CTTGGGGA	-0.0853
ACTCGCAT	-0.117
CACATGCC	0.178
CCGTAAGG	-0.00957
GTTAGATA	0.13
ACTAGGCC	-0.141
TGACAACA	0.194
CACGCGAG	0.014
GAGCAGAC	-0.249
AGAGGTGG	-0.124
AGTAAAGG	0.258
GAACCTCC	-0.127
GGTGACGA	-0.103
CAGCTCCC	-0.288
AATATCTA	0.0219
ATTAAACA	0.179
ATGAACGA	-0.0267
TGACCAAA	0.017
AATAATCT	-0.0232
ATTAGGCG	-0.0797

Sequence	PBM E-score
GGAACCTA	0.293
CGCCTACG	0.125
ACTGAATG	-0.0384
TTCAGGAA	0.337
CTTGCCAA	-0.0295
AAAGACCA	-0.203
ATGACATC	0.05
CCCTAGGG	-0.328
CACCTCAA	0.0603
AGAAAGAT	0.111
CTTCCTTC	-0.227
CATACTTC	-0.112
GTAACCAC	0.119
TGCGGCAA	0.0464
GCCCACAC	-0.212
AATAGGGG	-0.178
CGCAGGAG	-0.0652
ACGGTAGT	-0.173
AAGGTGTC	0.129
CTATGCTC	-0.196
ATTAGGGA	-0.132
AAACGCTG	0.0217
CGAATACA	0.277
CCTTCTAA	-0.00208
ATATCATG	0.0066

Sequence	PBM E-score
ATTATTAC	0.244
CATGAATG	0.0214
ATGTGCAG	0.0234
CCTAGGGC	-0.262
ATATGTAG	0.202
AAAACACG	0.335
CCAGCGGG	-0.266
GCTGGCTA	-0.356
AGCTTAAC	0.133
AGTTTTCC	0.0576
GCAGTAAA	-0.0685
ATGCAGAA	-0.00948
CGGTCTTA	-0.168
AATGTTAC	0.213
AGTCGGTC	-0.191
GTCACGAA	0.0688
CGGACAAA	0.00488
CACATACC	0.136
GGTGGCGA	-0.201
GAACTTAC	0.174
AGCTTCTC	-0.135
CGTGGGCC	-0.0848
AGCAAAAT	0.151
CTGGACGA	-0.174
CGGAACAA	0.0225

Sequence	PBM E-score
AAAACGGC	0.0108
TAAGATAA	0.0765
CTGTTGTC	0.00315
AATCAGCC	-0.232
TTCTTCAA	0.0231
CTCTGGCA	-0.309
CTTTTACC	0.141
GTTTATGA	-0.0399
CGTCTTAA	0.038
AGGGTACA	0.0495
ACAGGGTC	0.0763
ATCTTGAA	0.0179
ATACCTGG	-0.151
CGATGTGA	0.037
CGAAGACG	-0.186
AACGTTGT	0.192
TCCAAACA	-0.0454
GACAAGAC	-0.0436
CGCTTTTC	-0.0864
CAGTGAGA	-0.17
CATGTGTC	0.0577
AATATACC	-0.0367
ACCATACC	-0.327
CCCAGAGA	-0.224
ATCAGCAT	0.0765

Sequence	PBM E-score
ATGAACCA	0.101
CGACCTCA	-0.0396
CCCTACGA	-0.0683
AAAAGTTT	0.0965
AAGTGGGC	0.0201
ACGAGGAG	-0.169
CGAGCCCG	-0.303
ACTTATCG	-0.238
CCGGTTCC	0.0313
TGCGAGAA	-0.215
CCTACTAA	-0.0114
CCCTAACC	-0.29
TATGCTGA	0.0175
ACTGCAAA	-0.0642
CCGTGGAA	-0.0488
CCTGGCAG	0.0611
GCATAAGC	-0.00811
CTGCCCAC	-0.0587
AGACTCGG	-0.368
ACTCCTAC	0.00755
ATACCAAG	0.0179
ACGTCGAC	0.109
